Test results as given in the BET-seq Pho4 binding data (Le et al. 2018).
This is one part of the list. These are noisy estimates, calculated here from bound and input reads.

These sequences were tested against T1, Pho4 (S. cerevisiae) (UniProt P07270) (assay: relative binding free energy (BET-seq); higher = weaker binding). Details: reference: library average.
T1 sequence: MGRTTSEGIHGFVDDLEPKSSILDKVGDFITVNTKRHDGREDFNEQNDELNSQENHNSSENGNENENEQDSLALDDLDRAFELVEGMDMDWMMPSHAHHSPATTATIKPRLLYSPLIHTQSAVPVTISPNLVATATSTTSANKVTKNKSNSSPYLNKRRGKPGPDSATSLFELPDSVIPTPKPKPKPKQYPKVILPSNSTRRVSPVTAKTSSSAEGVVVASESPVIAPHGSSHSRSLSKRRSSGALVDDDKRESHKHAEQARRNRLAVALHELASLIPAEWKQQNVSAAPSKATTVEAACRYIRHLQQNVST

Sequence	relative binding free energy
TAGAACACGTGGTTGC	0.03 kcal/mol
ATGCGCACGTGGGGAG	-0.23 kcal/mol
TAAGGCACGTGGCGCG	-0.27 kcal/mol
TGGTACACGTGCTCGG	-0.02 kcal/mol
TGGGACACGTGAATTG	0.26 kcal/mol
GGAATCACGTGAAGTG	0.35 kcal/mol
CTGGACACGTGTGGGT	0.01 kcal/mol
AAGGACACGTGTTGAA	0.13 kcal/mol
GTTAGCACGTGTAGTA	0.07 kcal/mol
CTATGCACGTGGGGTG	-0.25 kcal/mol
TGTCGCACGTGGGCGA	-0.11 kcal/mol
TATTTCACGTGACGTT	0.31 kcal/mol
GGTTACACGTGCGTTT	0.22 kcal/mol
GTACGCACGTGTTTGC	0.05 kcal/mol
TGTGACACGTGTAGTC	0.14 kcal/mol
GGGTTCACGTGAGGTA	0.47 kcal/mol
GGGGACACGTGTGGAT	0.11 kcal/mol
ATAGTCACGTGTGTAA	0.1 kcal/mol
GGTTGCACGTGCCTTT	0.07 kcal/mol
CTTTTCACGTGCGTGT	0.13 kcal/mol
TTTGACACGTGAAATT	0.31 kcal/mol
AGGTTCACGTGCTGTG	0.15 kcal/mol
TGATGCACGTGAGTAT	0.21 kcal/mol
GGGGGCACGTGATATC	0.08 kcal/mol
GAGATCACGTGTTCGG	0.19 kcal/mol
ACATGCACGTGCAGGG	0.01 kcal/mol

Sequence	relative binding free energy
TTTGGCACGTGAACGG	0.19 kcal/mol
CGGATCACGTGCGGTC	0.36 kcal/mol
GCGGCCACGTGTAGGG	-0.06 kcal/mol
GTATGCACGTGGGACG	-0.04 kcal/mol
TACGGCACGTGAGGCG	0.06 kcal/mol
GTGCTCACGTGTTTAT	0.25 kcal/mol
GGGAACACGTGTGTCT	0.08 kcal/mol
GGTTTCACGTGGCTTC	0.33 kcal/mol
TTTTTCACGTGTGGGA	0.34 kcal/mol
GGAGGCACGTGGTAGA	-0.02 kcal/mol
TCTTTCACGTGGTAAA	0.4 kcal/mol
TGGTCCACGTGTGTGG	0.02 kcal/mol
ATGATCACGTGGCTGG	0.09 kcal/mol
AATTTCACGTGGGAGG	0.15 kcal/mol
TGTCGCACGTGCGGGT	-0.12 kcal/mol
TGTTGCACGTGGTGCG	-0.09 kcal/mol
TATAGCACGTGAAGTG	0.2 kcal/mol
AGAGTCACGTGTAATG	0.24 kcal/mol
CTGGTCACGTGTAGAA	0.36 kcal/mol
AGGGCCACGTGTAGCG	0.02 kcal/mol
CGGGTCACGTGATAGG	0.24 kcal/mol
AGGTGCACGTGGTTCA	0.02 kcal/mol
CTGGACACGTGTTTAT	0.07 kcal/mol
TTCTGCACGTGGGGAA	-0.07 kcal/mol
GGTATCACGTGGGTAA	0.02 kcal/mol
TAGGTCACGTGGTTTT	0.14 kcal/mol

Sequence	relative binding free energy
TAAATCACGTGGTTGT	0.16 kcal/mol
GAAAGCACGTGTGAAG	0.16 kcal/mol
ATTATCACGTGGAGAG	0.15 kcal/mol
GATAACACGTGTGGTA	0.05 kcal/mol
CGTTTCACGTGTGTAG	0.28 kcal/mol
CTCGTCACGTGGGTAG	-0.11 kcal/mol
AAGTTCACGTGATCGG	0.39 kcal/mol
TCAGGCACGTGGGATG	-0.17 kcal/mol
GTGATCACGTGGACTG	0.24 kcal/mol
GTTCTCACGTGGTGTA	0.18 kcal/mol
AGGCTCACGTGGTGAG	0.03 kcal/mol
TTAAGCACGTGAGTGC	0.2 kcal/mol
TTAATCACGTGGCGCG	0.18 kcal/mol
GAATACACGTGTGTAT	0.11 kcal/mol
ATGTGCACGTGCGTGT	-0.12 kcal/mol
GTCAACACGTGGTTAG	0.09 kcal/mol
ATTGGCACGTGTTTAG	-0.22 kcal/mol
GTGAGCACGTGATGTT	0.05 kcal/mol
AACTTCACGTGTAATT	0.38 kcal/mol
TGTGTCACGTGGGCAC	-0.08 kcal/mol
CTTAGCACGTGAGTGA	0.06 kcal/mol
TCGTACACGTGATTTT	0.17 kcal/mol
TTTACCACGTGAGGTA	0.37 kcal/mol
ATGAGCACGTGCAGTT	0.04 kcal/mol
ACGGTCACGTGTTCTG	0.25 kcal/mol
TAGAGCACGTGGGCTT	-0.3 kcal/mol

Sequence	relative binding free energy
TGACCCACGTGGGTGG	-0.2 kcal/mol
GGCTGCACGTGTGTAT	0.18 kcal/mol
TGTGTCACGTGTTTTC	0.18 kcal/mol
GAAATCACGTGTAGGG	0.1 kcal/mol
CTGTCCACGTGTGTGA	0.21 kcal/mol
TGTAACACGTGGGCTG	-0.15 kcal/mol
TTTTCCACGTGTTGTG	0.03 kcal/mol
TGAAGCACGTGGTGTT	-0.16 kcal/mol
TGGATCACGTGGGATA	0.02 kcal/mol
TAGGACACGTGGCGTG	-0.08 kcal/mol
GTATGCACGTGTTCGT	0.08 kcal/mol
AAATGCACGTGAGTGG	0.14 kcal/mol
GTGTTCACGTGGGGGG	0.22 kcal/mol
CATGGCACGTGGCGTA	-0.19 kcal/mol
GTGTGCACGTGAGTGC	0.15 kcal/mol
GATATCACGTGGTGTG	0.07 kcal/mol
GTTGTCACGTGTCTGA	0.08 kcal/mol
TGTATCACGTGAGTTT	0.3 kcal/mol
GAGATCACGTGTTGAT	0.32 kcal/mol
GGACGCACGTGGGTGT	-0.22 kcal/mol
GCCGGCACGTGAATGG	0.4 kcal/mol
TAATTCACGTGTGGTA	0.25 kcal/mol
TTTTACACGTGACATG	0.17 kcal/mol
TATATCACGTGTAGGT	0.21 kcal/mol
TTGTTCACGTGCGATA	0.26 kcal/mol
TTGATCACGTGAATGT	0.4 kcal/mol

Sequence	relative binding free energy
GTTGTCACGTGGTGGC	0.23 kcal/mol
TTTTTCACGTGCTATT	0.16 kcal/mol
TAATCCACGTGTGATT	0.21 kcal/mol
CTGTTCACGTGGCGGG	0.15 kcal/mol
TCAGTCACGTGTTATT	0.21 kcal/mol
GGAAGCACGTGTGTTA	-0.23 kcal/mol
AGAGGCACGTGTTGTA	-0.15 kcal/mol
TCCGGCACGTGAGGGT	0.15 kcal/mol
ATGTGCACGTGAAGAT	0.28 kcal/mol
GTGCGCACGTGTGGGC	-0.03 kcal/mol
GGGTGCACGTGTTATC	0.08 kcal/mol
TTCGGCACGTGGCGCT	-0.01 kcal/mol
TCCGTCACGTGGGTGG	-0.03 kcal/mol
TTCTTCACGTGTAGGC	0.33 kcal/mol
TAGTGCACGTGTGTCA	-0.12 kcal/mol
ATCAGCACGTGGGGGA	-0.19 kcal/mol
GGATACACGTGGGAGA	0.1 kcal/mol
GCGGGCACGTGTGGGG	0.01 kcal/mol
GTAACCACGTGTGGTG	0.1 kcal/mol
TCTTTCACGTGGTTAT	0.1 kcal/mol
TTTTCCACGTGTGGTC	0.06 kcal/mol
AGGTACACGTGGAGGA	0.12 kcal/mol
GTCTGCACGTGTGAAG	0.08 kcal/mol
AGAAACACGTGAGGGG	0.16 kcal/mol
TCGAGCACGTGTAGCG	0.03 kcal/mol
AGGTCCACGTGGGATG	0 kcal/mol

Sequence	relative binding free energy
ATGTGCACGTGAATGC	0.28 kcal/mol
CGTATCACGTGGGTGT	-0.02 kcal/mol
AGTGGCACGTGGTTCG	-0.23 kcal/mol
TTGTGCACGTGAGCCG	0.2 kcal/mol
CATGACACGTGATGGG	0.09 kcal/mol
TTGTTCACGTGTTTCT	0.13 kcal/mol
TAGGTCACGTGTCGGA	0.14 kcal/mol
ATCGGCACGTGTAAGG	0.07 kcal/mol
CGCGTCACGTGTGGTG	0.1 kcal/mol
ATCTGCACGTGTTTAT	-0.07 kcal/mol
GGCGACACGTGGCAGT	0.15 kcal/mol
GGAAACACGTGAGTGC	0.4 kcal/mol
TTACGCACGTGTGGAA	0.02 kcal/mol
GGTGACACGTGGAAAG	0.27 kcal/mol
GCGTGCACGTGGTTAG	-0.05 kcal/mol
TGTAACACGTGGTGAG	-0.09 kcal/mol
TGGTTCACGTGCGGCA	0.22 kcal/mol
GTGGGCACGTGTTTTA	-0.06 kcal/mol
TTGTGCACGTGGCTAT	-0.08 kcal/mol
CTGATCACGTGGAGGG	0.14 kcal/mol
AGTGTCACGTGCAGGA	0.01 kcal/mol
GTGGCCACGTGGAGTG	0.02 kcal/mol
CGGGGCACGTGAGGCA	0.1 kcal/mol
AAGTGCACGTGTCGTA	0.03 kcal/mol
AGCTTCACGTGGTTTA	0.14 kcal/mol
TTGTTCACGTGAAGAT	0.43 kcal/mol

Sequence	relative binding free energy
ATGATCACGTGGTAAG	0.09 kcal/mol
ATCAGCACGTGGTAGT	-0.17 kcal/mol
ATAGACACGTGTTGTA	0.02 kcal/mol
GTGGACACGTGGTATT	-0.05 kcal/mol
GTTGGCACGTGTTCTG	-0.07 kcal/mol
GATGTCACGTGTCTGA	0.33 kcal/mol
GTCGGCACGTGAAGTG	0.32 kcal/mol
TGCATCACGTGGGATG	-0.11 kcal/mol
CGGTGCACGTGATAGG	0 kcal/mol
GTATACACGTGGGGTG	0.01 kcal/mol
TTAGTCACGTGCTATG	-0.1 kcal/mol
GGATGCACGTGTAATG	0.08 kcal/mol
TGTTACACGTGGGATA	0.04 kcal/mol
GGCAGCACGTGGGGTT	-0.15 kcal/mol
TATTACACGTGGGAAT	-0.02 kcal/mol
TTTTTCACGTGACTAG	0.24 kcal/mol
CGGTGCACGTGTAGGA	-0.07 kcal/mol
GGCGTCACGTGTTATG	0.21 kcal/mol
CTTGGCACGTGTAATA	-0.03 kcal/mol
CGTGGCACGTGGGGAT	-0.24 kcal/mol
TTAGACACGTGGTGGC	0.03 kcal/mol
TTCTACACGTGTGATT	0.17 kcal/mol
CTGTGCACGTGCGTGC	-0.03 kcal/mol
CGGATCACGTGGTTTT	0.17 kcal/mol
TAGGTCACGTGGAATT	0.21 kcal/mol
GCGGTCACGTGGGGTC	0.05 kcal/mol

Sequence	relative binding free energy
AGAATCACGTGGTGAA	0.16 kcal/mol
TATGACACGTGTTATT	0.03 kcal/mol
GGGTTCACGTGGTGAG	0.31 kcal/mol
TAACGCACGTGTTGTA	-0.05 kcal/mol
ATTGACACGTGCGGTG	-0.19 kcal/mol
GGCATCACGTGAGTGT	0.34 kcal/mol
GGTGTCACGTGTCGAG	-0.01 kcal/mol
TGTGGCACGTGCGGAT	-0.05 kcal/mol
GTTTACACGTGGAGCG	0.12 kcal/mol
CGTTTCACGTGATTAT	0.4 kcal/mol
TATCTCACGTGCGTGG	0.16 kcal/mol
TATTGCACGTGGTTCG	-0.1 kcal/mol
GCTTGCACGTGGGTAT	-0.06 kcal/mol
GAGTTCACGTGACTGG	0.36 kcal/mol
TGTGTCACGTGAAGTG	0.41 kcal/mol
AGTGACACGTGGAATG	-0.09 kcal/mol
TGATGCACGTGTTTCG	-0.05 kcal/mol
CTCGTCACGTGTGAGG	0.13 kcal/mol
GTTTTCACGTGTGACA	0.38 kcal/mol
AAGGACACGTGGTGGA	-0.06 kcal/mol
AAGATCACGTGGAGGG	0.21 kcal/mol
ACTGGCACGTGGTTTG	-0.15 kcal/mol
GGTGCCACGTGTCATG	-0.04 kcal/mol
GAGTTCACGTGGGCGA	0.22 kcal/mol
TAGTCCACGTGTGATG	0.07 kcal/mol
GGTTGCACGTGGAGCA	0.04 kcal/mol

Sequence	relative binding free energy
TTTAACACGTGGATGA	-0.03 kcal/mol
TATTACACGTGGGAGA	-0.03 kcal/mol
GGTGACACGTGTGATA	0.07 kcal/mol
GATGCCACGTGGTGGA	-0.13 kcal/mol
AGAAGCACGTGGGTTG	-0.26 kcal/mol
GTTAGCACGTGGAGCG	-0.1 kcal/mol
TACCGCACGTGTGTGT	-0.08 kcal/mol
TCTGTCACGTGTTATT	0.04 kcal/mol
CGTCACACGTGATTGG	0.26 kcal/mol
GGTGCCACGTGCGGTG	-0.15 kcal/mol
CTTGTCACGTGTAGCT	0.24 kcal/mol
TGGGACACGTGGGCGC	-0.19 kcal/mol
GGGCGCACGTGAGTCG	0.14 kcal/mol
TTGTACACGTGTGACG	0.15 kcal/mol
TGGCACACGTGTGGGT	0.08 kcal/mol
AGATCCACGTGTAGTG	0.15 kcal/mol
TGTGGCACGTGGTCTC	-0.12 kcal/mol
TGTTGCACGTGTCGGT	0.08 kcal/mol
TGGATCACGTGTGCAT	0.1 kcal/mol
TACGGCACGTGGGGCT	-0.26 kcal/mol
GCGGGCACGTGAATGT	0.19 kcal/mol
GTATGCACGTGCAGTT	-0.03 kcal/mol
